From PubChem BioAssay AID686978 (National Center for Advancing Translational Sciences (NCATS), 2013)
Screen size: about 420,000 compounds; about 64,000 (15%) were called active. The inconclusive results got no clear call from the source; some entries with a clear call stand among them for comparison. Calls come from the whole dose curve; as a rule, active = well fitted inhibition curve with a large enough effect; inconclusive = small, poorly fitted or top-dose-only effect; inactive = flat fitted curve, though single readings scatter. No potency is given beside an inconclusive call; the fits are too rough.

Experiment: qHTS for Inhibitors of human tyrosyl-DNA phosphodiesterase 1 (TDP1): qHTS in cells in absence of CPT; note: nearly all actives have a fitted effect of over 55% in size
Conditions: DT40 Tdp1-/- hTDP1 cells, no CPT, ATP luminescence, 48 h; activity change, negative = growth inhibition: at 46.2 µM (top of the series) unless noted
Summary of the method: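 Compound effects on proliferation are scored in DT40 Tdp1-/-;hTDP1 cells in the absence of CPT. ATP levels (CellTiter-Glo luminescence) are recorded after a ≥48 hr, 37 °C incubation.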
% is set by controls: 0 for no effect and ±100 for the full control effect; potency is the fitted concentration of half-maximal effect; tags give direction and shape of the fitted curve.

Row | SMILES | activity change, negative = growth inhibition | Potency
1 | CC(C)C[C@@H]1COc2cc(N3CCC[C@H]3CO)ccc2S(=O)(=O)N1 | inactive: -18.4% | –
2 | COc1cccc(-c2nn(-c3ccccc3)cc2C(=O)Nc2nccs2)c1 | – | inconclusive [inhibitor, single point]
3 | Cc1ccc(C(=O)Nc2nc(-c3ccccn3)cs2)cc1S(=O)(=O)N1CCOCC1 | – | active: 0.731 µM
4 | COC(=O)COc1ccc2c(=O)c(Oc3ccccc3Br)coc2c1 | inactive: -6.82% | –
5 | Cc1ccc(-n2ncc3c(Nc4cccc(Cl)c4)ncnc32)c(C)c1 | – | inconclusive [inhibitor, single point]
6 | Fc1ccc(-c2csc(NC3=NCCC3)n2)cc1 | – | inconclusive [inhibitor, single point]
7 | Cc1ccc(C(=O)OC2CCCN(C)C2)cc1 (stereo unspecified) | – | inconclusive [inhibitor, single point]
8 | Cc1cc(C)nc(NC(=O)/C=C/c2ccc3c(c2)OCO3)c1 | – | inconclusive [inhibitor, single point]
9 | CCC(=O)OCOc1ccc(/C=C2/CCC(CN(C)C)C2=O)cc1 (stereo unspecified) | – | active: 2.91 µM
10 | CN(Cc1cnn(-c2ccccc2)c1)C(=O)c1cccc(S(=O)(=O)Nc2ccccc2F)c1 | – | inconclusive [inhibitor, single point]
11 | COC(=O)C1=CN(c2ccc(F)cc2)C=C(C(=O)OC)C1c1cccc([N+](=O)[O-])c1 | – | active: 25.9 µM
12 | CC(C)c1nnc(N2C(=O)c3oc4ccccc4c(=O)c3C2c2ccccc2F)s1 (stereo unspecified) | inactive: -27.1% | –
13 | COc1ccc(-c2oc3ncn4nc(COc5ccccc5)nc4c3c2-c2ccc(OC)cc2)cc1 | – | inconclusive [inhibitor, single point]
14 | Cc1nc(SCC(=O)Nc2ccc3c(c2)OCCO3)c2oc3ccccc3c2n1 | – | inconclusive [inhibitor, single point]
15 | CC(C)CCn1c(SC(C)C#N)nc2ccccc2c1=O (stereo unspecified) | – | inconclusive [inhibitor, single point]
16 | Cc1noc(C)c1-c1ccc(C(=O)NC2CCCCC2)c2occc12 | – | active: 14.6 µM
17 | CN(C(=O)CN1C(=O)S/C(=C\c2cccc(Cl)c2)C1=O)C1CCS(=O)(=O)C1 (stereo unspecified) | – | inconclusive [inhibitor, single point]
18 | COc1cc(/C=C/C(=O)NCCc2ccc(S(N)(=O)=O)cc2)ccc1OCC#N | inactive: -28.9% | –
19 | O=[N+]([O-])c1ccccc1COc1ccc(Cl)c2cccnc12 | inactive: -23.3% | –
20 | CCN(CC)CCCNC(=O)CCn1nc(-c2ccc(Cl)cc2)ccc1=O | inactive: -12.9% | –
21 | CC1(C)C(=O)Nc2ccccc2N1C(=O)COC(=O)C1CCCCC1 | – | inconclusive [inhibitor, single point]
22 | CCc1ccc(CNC(=O)CCc2c(C)nn(-c3ccc(N4CCCC4)nn3)c2C)cc1 | – | inconclusive [inhibitor, single point]
23 | COc1ccc(S(=O)(=O)N(C)c2ccc(OC(=O)C(C)Oc3ccc(F)cc3)cc2)cc1 (stereo unspecified) | inactive: -10.7% | –
24 | OC[C@@H]1CN(Cc2ccncc2)C[C@H](n2cnc3c(NCc4ccco4)ncnc32)O1 | – | inconclusive [inhibitor, single point]

Row | SMILES | activity change, negative = growth inhibition | Potency
25 | c1ccc([C@H]2CN3CCSC3=N2)cc1 | – | inconclusive [inhibitor, single point]
26 | CCN(Cc1ccccc1)C(=O)C1CCN(S(=O)(=O)c2ccc3c(c2)CCCN3C(C)=O)CC1 | – | inconclusive [inhibitor, single point]
27 | CC1C(=O)N(Cc2cn(Cc3ccco3)nn2)CCS(=O)(=O)N1Cc1ccc(-c2ccc(Cl)c(Cl)c2)cc1 (stereo unspecified) | – | active: 8.2 µM
28 | COc1ccc(C(CNC(=S)NCc2ccccc2)N2CCCC2)cc1 (stereo unspecified) | inactive: -28.7% | –
29 | CC(C)(C)n1nnnc1C(c1cccnc1)N1CCN(C(=O)c2ccco2)CC1 (stereo unspecified) | inactive: -13.7% | –
30 | O=C(NCc1nnc2n1CCN(C(=O)c1cccc(Cl)c1)CC2)C1CC1 | inactive: -7.18% | –
31 | O=C(Cn1ncc2c3ccccc3n(Cc3ccccc3F)c2c1=O)NCc1ccccc1Cl | – | active: 18.4 µM
32 | N#CC(C(=O)OC1CCCCC1)c1nc2ccccc2nc1N1CCOCC1 (stereo unspecified) | – | inconclusive [inhibitor, single point]
33 | COc1cccc2sc(N(CCN(C)C)C(=O)c3ccc(S(=O)(=O)N4CCCC4)cc3)nc12 | – | inconclusive [inhibitor, single point]
34 | CN(C)CCCC1Sc2ccccc2Sc2ccccc21 (stereo unspecified) | – | inconclusive [inhibitor, single point]
35 | Cc1nnsc1C(=O)NC1CCCc2c1cnn2-c1cc(F)cc(F)c1 (stereo unspecified) | inactive: -14.6% | –
36 | CCC(=O)c1ccc(/C=C/c2nc3ccccc3n2C)o1 | – | inconclusive [inhibitor, partial curve, poor fit]
37 | CC1CCCC(NC(=O)COC(=O)Cc2c[nH]c3ccccc23)C1C (stereo unspecified) | inactive: 3.68% | –
38 | N#Cc1ccc(C(C(=O)NCc2ccccc2)n2c(=O)c(-c3cc4ccccc4[nH]3)nc3ccccc32)cc1 (stereo unspecified) | – | active: 9.2 µM
39 | CCc1cccc(-n2nnc(-c3nsc(NC(=O)c4cccc(OC)c4)n3)c2C)c1 | – | inconclusive [inhibitor, single point]
40 | O=C(NCc1cccs1)c1cc(-c2ccc(O)cc2)on1 | – | inconclusive [inhibitor, single point]
41 | Cc1cccc(CC(=O)N2CC(=O)Nc3ccc(Br)cc3C2c2ccc(F)cc2)c1 (stereo unspecified) | – | inconclusive [inhibitor, single point]
42 | CC(C)Sc1nnc(-c2c[nH]c3ccccc23)n1C | – | inconclusive [inhibitor, single point]
43 | CCCn1c(Nc2ccc(Cl)cc2)nc2ccccc21 | – | inconclusive [inhibitor, single point]
44 | c1ccc(-c2ccc(C3=Nn4c(Cn5nnc6ccccc65)nnc4SC3)cc2)cc1 | – | inconclusive [inhibitor, single point]
45 | COc1ccc(-c2coc3c(C(=O)NCc4ccc(C(F)(F)F)cc4)cccc23)c(C)c1 | inactive: -94.1% | –
46 | CC(C#N)Sc1ccc(S(=O)(=O)N2CCCC2)cn1 (stereo unspecified) | inactive: 0.0068% | –
47 | COc1cccc(C(=O)Nc2ccccc2C(=O)OCc2cc(=O)n3c4c(sc3n2)CCCC4)c1 | – | active: 16.4 µM
48 | CCOC(=O)c1ccc(NC(=O)Cn2c(=O)cc(C)c3c(C)nn(-c4ccc(CC)cc4)c32)cc1 | inactive: -17.6% | –

Row | SMILES | activity change, negative = growth inhibition | Potency
49 | Cc1coc2c(C)c3oc(=O)c(CCC(=O)NCCc4ccccc4F)c(C)c3cc12 | – | active: 16.4 µM
50 | COc1ccc(-n2nc(C(=O)N3CCCCC3C)c3c4ccccc4n(C)c3c2=O)cc1Cl (stereo unspecified) | – | inconclusive [inhibitor, single point]
51 | COc1ccccc1CNS(=O)(=O)c1ccc2c(c1)oc(=O)n2C | – | inconclusive [inhibitor, partial curve]
52 | CC(=O)Nc1ccc(Nc2cc(C)nc3c(-c4ccccc4)cnn23)cc1 | – | active: 16.4 µM
53 | c1ccc(COc2cccc(-c3cc4nc(NCCOc5ccccc5)ccn4n3)c2)cc1 | – | inconclusive [inhibitor, single point]
54 | N#Cc1ccc(-c2cccs2)nc1SCc1ccc(Br)cc1 | inactive: -9.03% | –
55 | Cc1ccc(S(=O)(=O)CC(=O)c2ccc(C(C)(C)C)cc2)cc1 | – | inconclusive [inhibitor, single point]
56 | Cc1cc2oc(=O)cc(CN3CCC(C)CC3)c2cc1C | inactive: -8.94% | –
57 | CC1CCCN(S(=O)(=O)CCNC(=O)c2ccccc2)C1 (stereo unspecified) | inactive: -4.55% | –
58 | CCCCCCCCN1C(=O)[C@H](CC(=O)N2CCN(C(=O)C3CC3)CC2)C[C@@]2(C(=O)OCC)CCCC=C12 | – | active: 23.1 µM
59 | Cc1ccc(C2C=C(c3ccccc3)Nc3nc(NS(=O)(=O)c4ccccc4)nn32)cc1 (stereo unspecified) | – | inconclusive [inhibitor, single point]
60 | CCOc1ccc(CCNC(=O)c2cn(-c3ccc(OC)cc3)c(=O)c3ccccc23)cc1OCC | – | inconclusive [inhibitor, single point]
61 | COc1ccc(Br)cc1S(=O)(=O)Nc1cc(-c2cn3ccccc3n2)ccc1C | – | active: 13 µM
62 | Cc1ccc(C)c(Nc2nc(-c3ccncc3)nc3ccccc23)c1 | – | inconclusive [inhibitor, single point]
63 | CN1CCN(C2CCN(c3cccc(Cl)c3)CC2)CC1CCO (stereo unspecified) | inconclusive: -35.9% [inhibitor] | –
64 | COCCCn1c(SCC(=O)NC2CCS(=O)(=O)C2)nnc1-c1ccc(Cl)cc1 (stereo unspecified) | inactive: -9.43% | –
65 | CC1CCCCN1S(=O)(=O)c1ccc(NC(=O)c2ccco2)cc1 (stereo unspecified) | – | inconclusive [inhibitor, full curve]
66 | Cc1ccc(C)c(-c2nnc(OCC(=O)Nc3cc(C)on3)c3ccccc23)c1 | – | inconclusive [inhibitor, partial curve]
67 | CCOc1ccc(NS(=O)(=O)c2cc(C(=O)N3CCC3)ccc2Cl)cc1 | – | inconclusive [inhibitor, single point]
68 | CN(C(=O)c1ccccc1OC1CCN(S(C)(=O)=O)CC1)C1CCOC1 (stereo unspecified) | inactive: 15.4% | –
69 | CCN(CC)S(=O)(=O)c1cccc(NC(=O)c2cc3ccccc3o2)c1 | – | inconclusive [inhibitor, single point]
70 | O=C(c1ccc(F)cc1)N1CCCCC(S(=O)(=O)c2ccccc2)C1=O (stereo unspecified) | – | inconclusive [inhibitor, single point]
71 | O=S(=O)(c1ccc(F)cc1)N1CCN(Cc2cc3c(cc2Br)OCCO3)CC1 | – | inconclusive [inhibitor, single point]
